This note sets out measurements from ChEMBL document CHEMBL1961873, “Compounds: GSK PKIS; Assays: Nanosyn kinase panel” (2012).

For some assays here: Most of the strong results are listed elsewhere, so they are rarer here than in the full data. The list shows a part of the results, in another mix than the full data.

Test [1] addresses T1, Tyrosine-protein kinase receptor TYRO3 (Homo sapiens) (UniProt Q06418).
T1 sequence (whole entry): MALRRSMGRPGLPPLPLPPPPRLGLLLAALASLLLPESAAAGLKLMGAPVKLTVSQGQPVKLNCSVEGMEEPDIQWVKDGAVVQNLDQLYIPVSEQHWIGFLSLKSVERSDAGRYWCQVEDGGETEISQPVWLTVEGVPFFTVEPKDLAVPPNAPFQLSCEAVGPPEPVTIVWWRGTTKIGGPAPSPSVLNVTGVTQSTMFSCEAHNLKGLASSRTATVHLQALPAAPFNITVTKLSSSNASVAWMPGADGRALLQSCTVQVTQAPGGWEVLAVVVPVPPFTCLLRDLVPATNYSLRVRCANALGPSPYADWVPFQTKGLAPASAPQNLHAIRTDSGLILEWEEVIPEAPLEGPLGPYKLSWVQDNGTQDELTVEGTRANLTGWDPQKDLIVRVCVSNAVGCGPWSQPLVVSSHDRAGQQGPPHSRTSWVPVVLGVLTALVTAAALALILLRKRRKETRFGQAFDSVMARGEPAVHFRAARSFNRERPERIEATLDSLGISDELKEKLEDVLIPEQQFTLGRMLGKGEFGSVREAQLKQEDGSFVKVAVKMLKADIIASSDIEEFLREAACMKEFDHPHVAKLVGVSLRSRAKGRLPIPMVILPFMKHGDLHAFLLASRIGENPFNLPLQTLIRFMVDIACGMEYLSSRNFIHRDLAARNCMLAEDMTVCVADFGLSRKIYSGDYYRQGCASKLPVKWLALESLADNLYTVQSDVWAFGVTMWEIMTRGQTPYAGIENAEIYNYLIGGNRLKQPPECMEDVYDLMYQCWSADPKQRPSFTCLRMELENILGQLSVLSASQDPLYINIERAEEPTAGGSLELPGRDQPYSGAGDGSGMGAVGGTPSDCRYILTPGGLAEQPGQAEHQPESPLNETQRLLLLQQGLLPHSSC
The conditions noted are these: at 1 µM.

The target of test [2] is Tyrosine-protein kinase Yes (Homo sapiens) (UniProt P07947). The note with it: at 0.1 µM.
Chain of UniProt P07947 (P07947 whole entry, looked up): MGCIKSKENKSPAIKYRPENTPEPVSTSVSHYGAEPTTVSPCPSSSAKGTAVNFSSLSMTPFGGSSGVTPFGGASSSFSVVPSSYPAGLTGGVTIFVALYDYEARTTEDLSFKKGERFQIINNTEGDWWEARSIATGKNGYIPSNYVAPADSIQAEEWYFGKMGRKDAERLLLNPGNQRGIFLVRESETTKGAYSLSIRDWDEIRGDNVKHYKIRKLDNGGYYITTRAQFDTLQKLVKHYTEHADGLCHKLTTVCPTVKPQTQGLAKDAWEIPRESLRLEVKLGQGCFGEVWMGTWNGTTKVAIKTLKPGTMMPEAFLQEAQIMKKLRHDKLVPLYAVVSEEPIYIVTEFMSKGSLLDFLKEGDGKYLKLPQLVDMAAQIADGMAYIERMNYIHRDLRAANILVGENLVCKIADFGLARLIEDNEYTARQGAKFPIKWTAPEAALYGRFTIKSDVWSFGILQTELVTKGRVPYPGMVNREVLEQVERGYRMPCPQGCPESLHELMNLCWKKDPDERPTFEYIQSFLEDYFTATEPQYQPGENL
For test [3] the target is unchanged. The note with it: at 1 µM.
For test [4], the target named is T2, Tyrosine-protein kinase ZAP-70 (Homo sapiens) (UniProt P43403).
T2 sequence (whole entry): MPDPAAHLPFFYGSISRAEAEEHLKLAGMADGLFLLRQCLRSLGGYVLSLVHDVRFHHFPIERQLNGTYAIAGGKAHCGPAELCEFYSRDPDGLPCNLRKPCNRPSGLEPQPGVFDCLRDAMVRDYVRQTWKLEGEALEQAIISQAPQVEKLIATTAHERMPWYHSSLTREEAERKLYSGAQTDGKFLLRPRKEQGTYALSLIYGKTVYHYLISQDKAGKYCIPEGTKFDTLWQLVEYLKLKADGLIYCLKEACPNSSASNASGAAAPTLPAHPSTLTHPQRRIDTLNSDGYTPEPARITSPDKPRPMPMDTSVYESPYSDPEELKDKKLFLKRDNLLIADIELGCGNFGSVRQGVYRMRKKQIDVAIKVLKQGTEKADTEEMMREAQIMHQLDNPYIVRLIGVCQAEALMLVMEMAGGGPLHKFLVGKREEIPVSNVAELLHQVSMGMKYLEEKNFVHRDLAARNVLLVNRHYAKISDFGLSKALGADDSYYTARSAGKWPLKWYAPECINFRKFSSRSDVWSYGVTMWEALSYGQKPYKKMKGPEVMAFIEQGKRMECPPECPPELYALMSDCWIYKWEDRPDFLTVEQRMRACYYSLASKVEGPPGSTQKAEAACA
The note with it: at 0.1 µM.

Test [5] addresses T2, Tyrosine-protein kinase ZAP-70 (Homo sapiens). The conditions noted are these: at 1 µM.
The target of test [6] is Serine/threonine-protein kinase B-raf (Homo sapiens) (UniProt P15056). The conditions noted are these: at 0.1 µM.
Chain of UniProt P15056 (P15056 whole entry): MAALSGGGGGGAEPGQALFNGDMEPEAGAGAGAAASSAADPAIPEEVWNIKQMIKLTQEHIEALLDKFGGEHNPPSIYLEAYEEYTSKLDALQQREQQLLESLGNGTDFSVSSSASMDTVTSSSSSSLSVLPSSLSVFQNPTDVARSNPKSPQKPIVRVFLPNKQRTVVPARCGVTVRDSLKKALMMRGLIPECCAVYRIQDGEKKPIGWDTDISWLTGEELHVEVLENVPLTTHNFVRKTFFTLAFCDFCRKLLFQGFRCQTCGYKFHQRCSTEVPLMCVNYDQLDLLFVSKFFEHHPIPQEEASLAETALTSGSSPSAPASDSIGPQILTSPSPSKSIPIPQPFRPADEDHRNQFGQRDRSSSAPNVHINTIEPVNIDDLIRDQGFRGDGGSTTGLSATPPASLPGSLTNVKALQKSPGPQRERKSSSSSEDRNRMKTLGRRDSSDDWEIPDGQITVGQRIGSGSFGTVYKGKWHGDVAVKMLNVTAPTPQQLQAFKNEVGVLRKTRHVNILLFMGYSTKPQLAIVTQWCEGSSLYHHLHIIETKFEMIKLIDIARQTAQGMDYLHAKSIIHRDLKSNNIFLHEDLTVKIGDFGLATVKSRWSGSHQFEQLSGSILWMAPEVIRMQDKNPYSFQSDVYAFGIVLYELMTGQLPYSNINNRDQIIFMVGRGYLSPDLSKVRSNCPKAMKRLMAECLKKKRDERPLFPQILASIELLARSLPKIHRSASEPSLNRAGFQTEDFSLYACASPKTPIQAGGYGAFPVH
Test [7] shares this target. The conditions noted are these: at 1 µM.
In test [8] the test system is Serine/threonine-protein kinase B-raf (Homo sapiens), P15056 [V600E]. The conditions noted are these: at 0.1 µM.
Test [9] has the same test system. The note with it: at 1 µM.
The target in test [10] is RAF proto-oncogene serine/threonine-protein kinase (Homo sapiens) (UniProt P04049). The conditions noted are these: at 0.1 µM.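 Further: values are mean CRAF kinase inhibition from profiling of the GSK Published Kinase Inhibitor Set.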
Chain of UniProt P04049 (P04049 whole entry): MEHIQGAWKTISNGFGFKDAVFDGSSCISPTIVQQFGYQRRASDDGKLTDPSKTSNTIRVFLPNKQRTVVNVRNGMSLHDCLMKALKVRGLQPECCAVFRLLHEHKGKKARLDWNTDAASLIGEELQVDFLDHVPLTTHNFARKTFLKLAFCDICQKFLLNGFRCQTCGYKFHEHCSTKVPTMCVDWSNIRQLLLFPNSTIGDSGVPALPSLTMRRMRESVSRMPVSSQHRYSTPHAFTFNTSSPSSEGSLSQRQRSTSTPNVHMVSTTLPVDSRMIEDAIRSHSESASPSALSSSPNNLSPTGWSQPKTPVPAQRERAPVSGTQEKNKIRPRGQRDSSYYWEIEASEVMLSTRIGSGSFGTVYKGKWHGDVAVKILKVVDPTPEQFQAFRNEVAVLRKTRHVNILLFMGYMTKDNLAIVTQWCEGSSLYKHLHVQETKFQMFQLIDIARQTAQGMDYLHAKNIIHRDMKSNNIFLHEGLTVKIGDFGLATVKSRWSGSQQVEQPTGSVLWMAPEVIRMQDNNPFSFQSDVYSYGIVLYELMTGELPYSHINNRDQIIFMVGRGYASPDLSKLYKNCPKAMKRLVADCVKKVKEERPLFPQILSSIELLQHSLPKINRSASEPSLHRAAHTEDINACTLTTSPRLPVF

What is called inhibition is the change of the read-out against control, counted positive when it falls. Turning to `Fc1ccc(-c2ncn(C3CCNCC3)c2-c2ccnc(Oc3cccc(C(F)(F)F)c3)n2)cc1`, the inhibition was 0.95% in test [1]; 3.59% in test [2]; 3.28% in test [3]; 2.51% in test [4]; 2.23% in [5]; 8.2% in test [6]. For the same compound, the inhibition in test [7] is 9.1%; in [8], 6.64%; in [9], 6.1%; in [10] it was 2.4%.
Regarding `O=C1NC(=O)C(c2ccccc2Cl)=C1Nc1cc(Cl)c(O)c(Cl)c1`, the inhibition in [1] was 4.71%; in test [2], -0.8%; in test [3] it was 1.62%; in [4] it was 2.32%; in test [5] it was 0.91%; in test [6] it was 2.93%. The inhibition in test [7] turned out to be 5.8%; in test [8], 3.25%; in test [9] it was 5.02%; in test [10], 1.49%.
In the case of `CC(C)(C)c1ccc(Oc2nccc(-c3c(-c4ccc(F)cc4)ncn3C3CCNCC3)n2)cc1`, the inhibition in test [1] is 3.16%; in test [2] it was 3.05%; in [3], 5.48%; in test [4], -3.59%; in test [6], 6.06%; in test [7] it was 14.9%. Further, the inhibition came to 4.63% in test [8], 12.3% in [9] and 2.31% in test [10].
`Fc1ccc(-c2ncn(C3CCNCC3)c2-c2ccnc(Oc3ccc(Cl)cc3)n2)cc1`: the inhibition in test [1] is 1.63%; in test [2], -0.03%; in test [3], 0.1%; in test [4], -0.15%; in test [5], -2.6%; in test [6] it was 1.9%. For the same compound, the inhibition is 2.82% in test [7], 1.07% in test [8], 1.93% in test [9] and -1.81% in test [10].
Take `NC(=O)CCc1ccccc1Oc1nccc(-c2c(-c3ccc(F)cc3)ncn2C2CCNCC2)n1`: the inhibition was -1.13% in test [1]; -0.77% in [2]; -2.72% in test [3]; -2.46% in test [4]; 0.47% in test [5]; -2.7% in test [6]. Moreover, the inhibition in test [7] is -2.67%; in [8], 5.18%; in test [9], -0.7%; in [10], -3.04%.
As to `Fc1ccc(Oc2nccc(-c3c(-c4ccc(F)cc4)ncn3C3CCNCC3)n2)cc1`, the inhibition in [1] is -1%; in test [2], -0.25%; in test [3], -1.14%; in test [4], -4.64%; in test [5] it was -2.87%; in [6], 5.3%. The inhibition stood at 9.11% in test [7], 2.96% in test [8], 4.26% in test [9] and 1.46% in test [10].
On to `COc1ccccc1Oc1nccc(-c2c(-c3ccc(F)cc3)ncn2C2CCNCC2)n1`, for which the inhibition in [1] was 3.44%; in test [2], 1.67%; in test [3], 6.4%; in [4], -1.27%; in [5], -0.28%; in [6], 6.64%. In addition, the inhibition in test [7] was 8.02%; in test [8] it was 4.66%; in [9] it was 4.03%; in [10], -2.51%.
For the compound `O=C1NC(=O)C(c2cccc([N+](=O)[O-])c2)=C1Nc1cc(Cl)c(O)c(Cl)c1`, the inhibition is 1.3% in [1]; 0.98% in test [2]; 3.65% in test [3]; -2.36% in test [4]; 0.91% in [5]; 2.35% in test [6]. The inhibition in test [7] came out at 3.75%; in [8], 3.01%; in test [9], 3.31%; in [10], 16.3%.
In the case of `CS(=O)(=O)c1ccc(Oc2nccc(-c3c(-c4ccc(F)cc4)ncn3C3CCNCC3)n2)cc1`, the inhibition in test [1] amounted to 3.49%; in test [2] it was 1.1%; in test [3], 4.12%; in [4], 0.61%; in [5], 1.29%; in test [6] it was 6.14%. Also, the inhibition in [7] stood at 5.95%; in test [8], 4.98%; in test [9] it was 3.13%; in test [10], 1.89%.
For `O=C1NC(=O)C(c2ccccc2)=C1Nc1ccccc1`, the inhibition turned out to be 4.48% in test [1]; 2.03% in [2]; 2.59% in test [3]; 3.89% in test [4]; 1.91% in test [5]; 8.15% in [6]. Also, the inhibition came to 6.69% in [7], 7.6% in [8], 5.97% in [9] and 2.66% in [10].
Turning to `Fc1ccc(-c2ncn(C3CCNCC3)c2-c2ccnc(Oc3cccc(F)c3)n2)cc1`, the inhibition in test [1] amounted to 3.14%; in test [2], 3.48%; in [3] it was 6.72%; in test [4], 1.01%; in test [5] it was 1.77%; in [7], 9.91%. For the same compound, the results for the inhibition in test [8], in test [9] and in test [10] were 3.08%, 5.43% and 3.39%, respectively.
On to `O=C(O)c1ccc(Oc2nccc(-c3c(-c4ccc(F)cc4)ncn3C3CCNCC3)n2)cc1`, for which the inhibition in test [1] was 2.64%; in test [2], 0.62%; in test [3], -0.06%; in test [4], 1.32%; in [5], 2.99%; in test [7], 10.5%. The inhibition in test [8] stood at 4.46%; in [9] it was 5.65%; in [10] it was 1.06%.
On to `Cc1cccc(Oc2nccc(-c3c(-c4ccc(F)cc4)ncn3C3CCNCC3)n2)c1C`, for which the inhibition in test [1] is 2.21%; in test [2] it was 2.26%; in test [3] it was 4.79%; in test [4] it was -3.83%; in test [5], -2.95%; in test [6] it was 6.21%. Further, the inhibition in test [7] is 6.08%; in test [8], 4.06%; in [9], 4.68%; in test [10] it was -1.24%.
`COc1ccccc1C1=C(Nc2ccccc2)C(=O)NC1=O`: the inhibition in test [1] came out at 3.3%; in test [2] it was 4.77%; in [3] it was 20.3%; in [4], 0.26%; in test [5], 1.94%; in test [6], 4.84%. Besides, the inhibition in test [7] worked out at 4.42%; in test [8] it was 4.33%; in test [9], 5.18%; in [10] it was 2.57%.
